The source gives no read counts; variants with many changes may rest on few reads.

The chains are these.
B1: CPEB3 Ribozyme (parent)
chain: UAACAGGGGGCCACAGCAGAAGCGUUCACGUCGCAGCCCCUGUCAGAUUCUGGUGAAUCUGCGAAUUCUGCUGUAUAUCUC

This series covers variants of B1. In words: self-cleavage, relative activity (ratio to wild type); higher = more cleavage; in vitro, sequencing. The procedure, abridged: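 Relative activity compares each variant's cleaved/total read fraction with that of the unmutated ribozyme. To get these fractions, barcoded CPEB3 ribozyme libraries from rounds of error-prone PCR were transcribed with T7 RNA polymerase for 5 hours at 37°C and then given 15 min of DNase I treatment before EDTA was added. The RNAs were reverse transcribed with template switching and sequenced on Illumina, and DNA sequencing linked barcodes to variants. A minimum of 5 reads applied, and three batches were averaged.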
On to G8U A35U A57G, for which the self-cleavage was found to be 0.09.

As to G8U A47G G53A U80C, the self-cleavage is 0.24. On to G8A U41C A45U G63C, for which the self-cleavage was determined as 0.06. With G8A U31C A64U U67G U80C, the self-cleavage was 0.05.

G8A U31C G61U A65G U67C U74C U76G: the self-cleavage is 0.02. As to G8U C29U A45C G46A A47G U72C, the self-cleavage worked out at 0.06. Then G8C U25C C40A U78A, with 0.03; and G8A C17A C39G C79A, with 0.43. In the case of G8C A13U U31C, the self-cleavage was 0.17. With G8A U41C C81U the figure was 0.54; with G8U A18G A21U U54C, 0.05; with G8U U25C C38A A75G U76C, 0.04. With G8A U60C U66A the figure was 0.07. Consider G8A U25C U43C U69A, for which the self-cleavage was 0.05. With G8U A21G A56U U60A U66C U72C, the self-cleavage is 0.08. G8A G30C U31A G73A: the self-cleavage is 0.27.

Consider G8U U26A U31G U41C U76C, for which the self-cleavage is 0.12. As for G8A A47G U58C, the self-cleavage is 0.27.

As for G8A A21G U67C U78C C79U, the self-cleavage amounted to 0.06. Regarding G8U A35U G46A U66C, the self-cleavage came out at 0.1. For the variant G8A G10A U41A A75U, the self-cleavage is 0.06. For the variant G8U G33C U74C, the self-cleavage worked out at 0.1. Then G8U C34A G63A A75U, with 0.06; and G8A U58C G73A U78A, with 0.08; and G8U A15U A18U A20C, with 0.22. For G8U U25C A45G U66C, the self-cleavage stood at 0.06.

G8U A13G A57G C62U A64U U72A: the self-cleavage was determined as 0.05. With G8C C23A U26C, the self-cleavage was found to be 0.09. With G8U A13U G30U U41A U51C A77U the figure was 0.04; with G8U A15G C37U A65C, 0.09; with G8U A18U U26G A47G U80A, 0.04. With G8U U31A C50U U51G U60C the figure was 0.09; with G8U A28G U80C, 0.09; with G8C U25A U78C, 0.2.

On to G8U A13U C40A U43C, for which the self-cleavage is 0.05.

For G8A U26A C40U U69C, the self-cleavage worked out at 0.04. For G8A C34U G36A A45G A75U U78C, the self-cleavage came to 0.04. Then G8A A28G U58C, with 0.03; and G8A C17U U26A A56G U80A, with 0.04. With G8U C17U A45U A64U the figure was 0.05; with G8A U49C U54C A65G U67C U74C, 0.12; with G8U C17U A47G U60G G63U U80A, 0.02. Consider G8A C23U U48C A56G C62A U66C A77U, for which the self-cleavage is 0.04. With G8A C40A A56G A57G U69A the figure was 0.05; with G8A U31C U49C U54A U60C U72C U74C, 0.05; with G8A C12U U31A U72C, 0.06.

Consider G8C C23U U43A G70A G73U, for which the self-cleavage is 0.04. In the case of G8A A35C U43A, the self-cleavage was determined as 0.12.

On to G8U G19U A21G G33A A47U A57G A65G, for which the self-cleavage was 0.03. With G8U A57G G70A the figure was 0.05; with G8C G10A A47U U54C A75G, 0.04. Then G8C U43C U76C, with 0.36; and G8A U43C U48C, with 0.3; and G8U A18G A28G A75G, with 0.08. For G8A G16A U48C A56G, the self-cleavage came out at 0.27. Then G8A C14U U25A U26A G30A U54G, with 0.05.

Turning to G8U C44U A45U A65U U80C, the self-cleavage stood at 0.07. Turning to G8U A15U U58C, the self-cleavage turned out to be 0.12. With G8U U31A C50U U54C C81A the figure was 0.08; with G8A U31A C32A C37G U72C, 0.05; with G8U C37U A56U U60C, 0.04. With G8A A28U U54A U72C the figure was 0.06; with G8A U51C A56C G73U, 0.04. G8A A47U U49A G63A U72A: the self-cleavage came out at 0.05. For the variant G8A A28G A35G A45U U54C A65G U69C, the self-cleavage came to 0.04.

With G8A U43C C50A U69C, the self-cleavage stood at 0.06.

Turning to G8A A47G A56G, the self-cleavage is 0.25. Regarding G8U A45G C71U, the self-cleavage worked out at 0.06. As to G8A U49C C59A U74C, the self-cleavage was 0.05. Turning to G8U C17U A28G C32U U43A, the self-cleavage was 0.05.

With G8U A35G U58A C62G U66C, the self-cleavage came to 0.05. For the variant G8C G24U C29U U66C, the self-cleavage came to 0.16.

As for G8U G36U G55A A77G, the self-cleavage was determined as 0.03.

In the case of G8A G16A A20G A57G U60C A65G U78C, the self-cleavage amounted to 0.07.

As for G8A U41C U80C, the self-cleavage turned out to be 0.12. With G8A C11U A21G G36A G61A the figure was 0.04; with G8A U41C A57G C79U, 0.34; with G8A C38U U41A A77U U80A, 0.05.

For G8A U25A G42A U74C, the self-cleavage amounted to 0.06.

As for G8U U31C U60A U72C, the self-cleavage is 0.06. Take G8A A28G U41A U49C A56U A65G: the self-cleavage came out at 0.13. In the case of G8A G10A A45G, the self-cleavage is 0.06.

Turning to G8A U25C U80C, the self-cleavage was 0.29.

For the origin of these results see the RNAGym collection of RNA variant scans (doi:10.1093/nar/gkz1192).
